Measured values taken from the antibiotic and cytotoxicity screens of Wong et al. (2023).
This is one part of the list.

How the values were obtained:
HSkMC = human skeletal muscle cells; assay: cytotoxicity call (relative viability < 0.9); details: 10 µM
HepG2 = assay: cytotoxicity call (relative viability < 0.9); details: 10 µM
S. aureus RN4220 = assay: growth inhibition call (relative growth <= 0.2); details: 50 µM

C[C@@H]1CCCCO[C@H](CN(C)CC2CC2)[C@@H](C)CN([C@H](C)CO)C(=O)c2cc(NC(=O)CCC(F)(F)F)ccc2O1
inactive: cytotoxicity call (HSkMC) | cytotoxicity call (HepG2) | growth inhibition call (S. aureus RN4220)

C[C@H]1CN([C@@H](C)CO)C(=O)c2cccc(NC(=O)Nc3ccccc3)c2O[C@H]1CN(C)Cc1ccc(Cl)c(Cl)c1
inactive: cytotoxicity call (HSkMC) | cytotoxicity call (HepG2) | growth inhibition call (S. aureus RN4220)

COc1ccc(S(=O)(=O)N(C)C[C@@H]2Oc3c(NC(=O)Nc4c(C)noc4C)cccc3C(=O)N([C@@H](C)CO)C[C@H]2C)cc1
inactive: cytotoxicity call (HSkMC) | cytotoxicity call (HepG2) | growth inhibition call (S. aureus RN4220)

Cc1ccc(S(=O)(=O)Nc2ccc3c(c2)C(=O)N([C@@H](C)CO)C[C@H](C)[C@@H](CN(C)C(=O)c2ccccc2)OCCCC[C@H](C)O3)cc1
inactive: cytotoxicity call (HSkMC) | cytotoxicity call (HepG2) | growth inhibition call (S. aureus RN4220)

C[C@H]1CN([C@@H](C)CO)C(=O)Cc2cc(NC(=O)C3CC3)ccc2O[C@@H]1CN(C)C(=O)Nc1ccc2c(c1)OCO2
inactive: cytotoxicity call (HSkMC) | cytotoxicity call (HepG2) | growth inhibition call (S. aureus RN4220)

Cc1noc(C)c1NC(=O)N(C)C[C@H]1Oc2ccc(NC(=O)c3ccncc3)cc2C(=O)N([C@@H](C)CO)C[C@H]1C
inactive: cytotoxicity call (HSkMC) | cytotoxicity call (HepG2) | growth inhibition call (S. aureus RN4220)

C[C@H]1CN([C@@H](C)CO)C(=O)c2ccccc2-c2ccccc2CO[C@H]1CN(C)Cc1cccc2c1OCCCO2
inactive: cytotoxicity call (HSkMC) | cytotoxicity call (HepG2) | growth inhibition call (S. aureus RN4220)

Cc1cn[nH]c1
inactive: cytotoxicity call (HSkMC) | cytotoxicity call (HepG2) | growth inhibition call (S. aureus RN4220)
